{"source": "the supplement of paper PMC8728848", "assay_in_all_cases": "glycan array binding signal (z-score within array); higher = stronger binding", "settings_in_all_cases": "glycan notation: IUPAC condensed, linker removed", "key": {"[1]": {"molecular_target": "Fuc(a1-2)[GalNAc(a1-3)]Gal(b1-4)Glc", "in_short": "(§1)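 From the Consortium for Functional Glycomics database, 3228 arrays were curated, keeping only those whose protein sequence was available. Binding is given as a within-array Z-score averaged across arrays sharing a protein sequence and across linkers. Negative Z-scores can be read as non-binding.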"}, "[2]": {"molecular_target": "Fuc(a1-2)[GalNAc(a1-3)]Gal(b1-4)GlcNAc", "in_short": "as §1"}, "[3]": {"molecular_target": "Fuc(a1-2)[GalNAc(a1-3)]Gal(b1-4)GlcNAc(b1-2)Man", "in_short": "as §1"}, "[4]": {"molecular_target": "Fuc(a1-2)[GalNAc(a1-3)]Gal(b1-4)GlcNAc(b1-2)Man(a1-3)[Fuc(a1-2)[GalNAc(a1-3)]Gal(b1-4)GlcNAc(b1-2)Man(a1-6)]Man(b1-4)GlcNAc(b1-4)GlcNAc", "in_short": "as §1"}, "[5]": {"molecular_target": "Fuc(a1-2)[GalNAc(a1-3)]Gal(b1-4)GlcNAc(b1-2)Man(a1-3)[Fuc(a1-2)[GalNAc(a1-3)]Gal(b1-4)GlcNAc(b1-2)Man(a1-6)]Man(b1-4)GlcNAc(b1-4)[Fuc(a1-6)]GlcNAc", "in_short": "as §1"}, "[6]": {"molecular_target": "Fuc(a1-2)[GalNAc(a1-3)]Gal(b1-4)GlcNAc(b1-3)Gal(b1-4)GlcNAc", "in_short": "as §1"}, "[7]": {"molecular_target": "Fuc(a1-2)[GalNAc(a1-3)]Gal(b1-4)GlcNAc(b1-3)Gal(b1-4)GlcNAc(b1-3)Gal(b1-4)GlcNAc", "in_short": "as §1"}, "[8]": {"molecular_target": "Fuc(a1-2)[GalNAc(a1-3)]Gal(b1-4)GlcNAc(b1-3)GalNAc", "in_short": "as §1"}, "[9]": {"molecular_target": "Fuc(a1-2)[GalNAc(a1-3)]Gal(b1-4)GlcNAc(b1-3)[Fuc(a1-2)[GalNAc(a1-3)]Gal(b1-4)GlcNAc(b1-6)]GalNAc", "in_short": "as §1"}, "[10]": {"molecular_target": "Fuc(a1-2)[GalNAc(a1-3)]Gal(b1-4)GlcNAc(b1-6)GalNAc", "in_short": "as §1"}, "[11]": {"molecular_target": "Fuc(a1-2)[GalNAc(a1-3)]Gal(b1-4)[Fuc(a1-3)]GlcNAc", "in_short": "as §1"}, "[12]": {"molecular_target": "Fuc(a1-2)[GalNAc(a1-3)]Gal(b1-4)[Fuc(a1-3)]GlcNAc(b1-3)GalNAc", "in_short": "as §1"}, "[13]": {"molecular_target": "Fuc(a1-2)[GalNAc(a1-4)]Gal(b1-4)GlcNAc", "in_short": "as §1"}, "[14]": {"molecular_target": "Fuc(a1-2)[GalNAc(b1-3)]Gal", "in_short": "as §1"}, "Fuc(a1-3)GlcNAc": {"molecular_target": "Fuc(a1-3)GlcNAc", "in_short": "as §1"}, "[15]": {"molecular_target": "Fuc(a1-3)[Gal(b1-4)]Glc6S", "in_short": "as §1"}, "[16]": {"molecular_target": "Fuc(a1-3)[Gal(b1-4)]GlcNAc", "in_short": "as §1"}, "[17]": {"molecular_target": "Fuc(a1-3)[Gal(b1-4)]GlcNAc(b1-2)Man", "in_short": "as §1"}, "[18]": {"molecular_target": "Fuc(a1-3)[Gal(b1-4)]GlcNAc(b1-2)Man(a1-3)[Fuc(a1-3)[Gal(b1-4)]GlcNAc(b1-2)Man(a1-6)]Man(b1-4)GlcNAc(b1-4)GlcNAc", "in_short": "as §1"}, "[19]": {"molecular_target": "Fuc(a1-3)[Gal(b1-4)]GlcNAc(b1-2)Man(a1-3)[Fuc(a1-3)[Gal(b1-4)]GlcNAc(b1-2)Man(a1-6)]Man(b1-4)GlcNAc(b1-4)[Fuc(a1-6)]GlcNAc", "in_short": "as §1"}, "[20]": {"molecular_target": "Fuc(a1-3)[Gal(b1-4)]GlcNAc(b1-3)Gal(b1-3)[Fuc(a1-4)]GlcNAc", "in_short": "as §1"}, "[21]": {"molecular_target": "Fuc(a1-3)[Gal(b1-4)]GlcNAc(b1-3)Gal(b1-4)[Fuc(a1-3)]GlcNAc", "in_short": "as §1"}, "[22]": {"molecular_target": "Fuc(a1-3)[Gal(b1-4)]GlcNAc(b1-3)Gal(b1-4)[Fuc(a1-3)]GlcNAc(b1-3)Gal(b1-4)[Fuc(a1-3)]GlcNAc", "in_short": "as §1"}, "[23]": {"molecular_target": "Fuc(a1-3)[Gal(b1-4)]GlcNAc(b1-3)GalNAc", "in_short": "as §1"}, "[24]": {"molecular_target": "Fuc(a1-3)[Gal(b1-4)]GlcNAc(b1-6)GalNAc", "in_short": "as §1"}, "[25]": {"molecular_target": "Fuc(a1-3)[Gal(b1-4)]GlcNAc(b1-6)[Gal(b1-3)GlcNAc(b1-3)]Gal(b1-4)Glc", "in_short": "as §1"}, "[26]": {"molecular_target": "Fuc(a1-3)[Gal(b1-4)]GlcNAc6S", "in_short": "as §1"}, "[27]": {"molecular_target": "Fuc(a1-3)[Gal3S(b1-4)]Glc", "in_short": "as §1"}, "[28]": {"molecular_target": "Fuc(a1-3)[Gal3S(b1-4)]GlcNAc", "in_short": "as §1"}, "[29]": {"molecular_target": "Fuc(a1-3)[Gal3S(b1-4)]GlcNAc6S", "in_short": "as §1"}, "[30]": {"molecular_target": "Fuc(a1-3)[GalNAc(b1-4)]GlcNAc", "in_short": "as §1"}, "[31]": {"molecular_target": "Fuc(a1-3)[GalNAc(b1-4)]GlcNAc6S", "in_short": "as §1"}, "Fuc(a1-4)GlcNAc": {"molecular_target": "Fuc(a1-4)GlcNAc", "in_short": "as §1"}, "Fuc(b1-3)GlcNAc": {"molecular_target": "Fuc(b1-3)GlcNAc", "in_short": "as §1"}, "Gal(a1-2)Gal": {"molecular_target": "Gal(a1-2)Gal", "in_short": "as §1"}, "Gal(a1-3)Gal": {"molecular_target": "Gal(a1-3)Gal", "in_short": "as §1"}, "Gal(a1-3)Gal(b1-3)GlcNAc": {"molecular_target": "Gal(a1-3)Gal(b1-3)GlcNAc", "in_short": "as §1"}, "[32]": {"molecular_target": "Gal(a1-3)Gal(b1-3)GlcNAc(b1-2)Man", "in_short": "as §1"}, "[33]": {"molecular_target": "Gal(a1-3)Gal(b1-3)GlcNAc(b1-2)Man(a1-3)[Gal(a1-3)Gal(b1-3)GlcNAc(b1-2)Man(a1-6)]Man(b1-4)GlcNAc(b1-4)GlcNAc", "in_short": "as §1"}, "[34]": {"molecular_target": "Gal(a1-3)Gal(b1-3)GlcNAc(b1-3)GalNAc", "in_short": "as §1"}, "[35]": {"molecular_target": "Gal(a1-3)Gal(b1-3)GlcNAc(b1-6)GalNAc", "in_short": "as §1"}, "[36]": {"molecular_target": "Gal(a1-3)Gal(b1-3)[Fuc(a1-4)]GlcNAc(b1-2)Man(a1-3)[Gal(a1-3)Gal(b1-3)[Fuc(a1-4)]GlcNAc(b1-2)Man(a1-6)]Man(b1-4)GlcNAc(b1-4)GlcNAc", "in_short": "as §1"}, "Gal(a1-3)Gal(b1-4)Glc": {"molecular_target": "Gal(a1-3)Gal(b1-4)Glc", "in_short": "as §1"}, "Gal(a1-3)Gal(b1-4)GlcNAc": {"molecular_target": "Gal(a1-3)Gal(b1-4)GlcNAc", "in_short": "as §1"}, "[37]": {"molecular_target": "Gal(a1-3)Gal(b1-4)GlcNAc(b1-2)Man", "in_short": "as §1"}}, "note": "Some of the results follow."}
{"binder": "ACA (Amaranthus caudatus) (protein) MAGLPVIMCLKSNNNQKYLRYQSDNIQQYGLLQFSADKILDPLAQFEVEPSKTYDGLVHIKSRYTNKYLVRWSPNHYWITASANEPDENKSNWACTLFKPLYVEEGNMKKVRLLHVQLGHYTQNYTVGGSFVSYLFAESSQIDTGSKDVFHVIDWKSIFQFPKRYVTFKGNNGKYLGVITINQLPCLQFGYDNLNDPKVAHEMFVTSNGTICIKSTYMNKFWRLSTDDWILVDGNDPRETNEAAALFRSDVHDFNVISLLNMQKTWFIKRFTSGKPGFINCMNAATQNVDETAILEIIELGSNN", "values": [{"measurement": "glycan array binding signal (z-score)", "setting": "[1]", "value": -0.187}, {"measurement": "glycan array binding signal (z-score)", "setting": "[2]", "value": -0.187}, {"measurement": "glycan array binding signal (z-score)", "setting": "[3]", "value": -0.449}, {"measurement": "glycan array binding signal (z-score)", "setting": "[4]", "value": 0.132}, {"measurement": "glycan array binding signal (z-score)", "setting": "[5]", "value": -0.025}, {"measurement": "glycan array binding signal (z-score)", "setting": "[6]", "value": -0.525}, {"measurement": "glycan array binding signal (z-score)", "setting": "[7]", "value": 0.467}, {"measurement": "glycan array binding signal (z-score)", "setting": "[8]", "value": -0.302}, {"measurement": "glycan array binding signal (z-score)", "setting": "[9]", "value": -0.435}, {"measurement": "glycan array binding signal (z-score)", "setting": "[10]", "value": -0.116}, {"measurement": "glycan array binding signal (z-score)", "setting": "[11]", "value": 0.474}, {"measurement": "glycan array binding signal (z-score)", "setting": "[12]", "value": 1.38}, {"measurement": "glycan array binding signal (z-score)", "setting": "[13]", "value": -0.274}, {"measurement": "glycan array binding signal (z-score)", "setting": "[14]", "value": 0.345}, {"measurement": "glycan array binding signal (z-score)", "setting": "Fuc(a1-3)GlcNAc", "value": -0.103}, {"measurement": "glycan array binding signal (z-score)", "setting": "[15]", "value": 0.058}, {"measurement": "glycan array binding signal (z-score)", "setting": "[16]", "value": -0.185}, {"measurement": "glycan array binding signal (z-score)", "setting": "[17]", "value": 0.246}, {"measurement": "glycan array binding signal (z-score)", "setting": "[18]", "value": -0.387}, {"measurement": "glycan array binding signal (z-score)", "setting": "[19]", "value": 0.615}, {"measurement": "glycan array binding signal (z-score)", "setting": "[20]", "value": 0.001}, {"measurement": "glycan array binding signal (z-score)", "setting": "[21]", "value": -0.135}, {"measurement": "glycan array binding signal (z-score)", "setting": "[22]", "value": -0.379}, {"measurement": "glycan array binding signal (z-score)", "setting": "[23]", "value": -0.103}, {"measurement": "glycan array binding signal (z-score)", "setting": "[24]", "value": 0.307}, {"measurement": "glycan array binding signal (z-score)", "setting": "[25]", "value": 0.14}, {"measurement": "glycan array binding signal (z-score)", "setting": "[26]", "value": 0.455}, {"measurement": "glycan array binding signal (z-score)", "setting": "[27]", "value": -0.145}, {"measurement": "glycan array binding signal (z-score)", "setting": "[28]", "value": 0.003}, {"measurement": "glycan array binding signal (z-score)", "setting": "[29]", "value": -0.303}, {"measurement": "glycan array binding signal (z-score)", "setting": "[30]", "value": -0.069}, {"measurement": "glycan array binding signal (z-score)", "setting": "[31]", "value": -0.294}, {"measurement": "glycan array binding signal (z-score)", "setting": "Fuc(a1-4)GlcNAc", "value": -0.663}, {"measurement": "glycan array binding signal (z-score)", "setting": "Fuc(b1-3)GlcNAc", "value": 0.061}, {"measurement": "glycan array binding signal (z-score)", "setting": "Gal(a1-2)Gal", "value": 0.024}, {"measurement": "glycan array binding signal (z-score)", "setting": "Gal(a1-3)Gal", "value": -0.223}, {"measurement": "glycan array binding signal (z-score)", "setting": "Gal(a1-3)Gal(b1-3)GlcNAc", "value": 0.058}, {"measurement": "glycan array binding signal (z-score)", "setting": "[32]", "value": -0.587}, {"measurement": "glycan array binding signal (z-score)", "setting": "[33]", "value": 0.725}, {"measurement": "glycan array binding signal (z-score)", "setting": "[34]", "value": -0.395}, {"measurement": "glycan array binding signal (z-score)", "setting": "[35]", "value": 0.287}, {"measurement": "glycan array binding signal (z-score)", "setting": "[36]", "value": 0.809}, {"measurement": "glycan array binding signal (z-score)", "setting": "Gal(a1-3)Gal(b1-4)Glc", "value": -0.384}, {"measurement": "glycan array binding signal (z-score)", "setting": "Gal(a1-3)Gal(b1-4)GlcNAc", "value": -0.357}, {"measurement": "glycan array binding signal (z-score)", "setting": "[37]", "value": 0.029}]}
